Data reported in the supplement of paper PMC11417369.
± gives the standard deviation of the averaged measurements. The list shows a part of the results.

test system: PfAP2-I AP2 domain 3 (GST-tagged); assay: gcPBM binding intensity (ln(normalized median fluorescence intensity)); higher = stronger DNA binding
How it was run: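 After 1 h on an Agilent 4 × 180k array of primer-extended double-stranded 36-bp intergenic genomic probes and negative controls, bound GST-tagged P. falciparum DNA-binding domains were detected with Alexa488 anti-GST antibody and scanned at 488 nm. The domains had been expressed in E. coli, and binding took place in 1× PBS with 1% milk, 0.2 mg/ml BSA, 0.5% salmon testes DNA and 0.03% Triton X-100. Binding intensity is the highest Masliner-normalised natural-log median intensity across replicate spots of either probe orientation.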

Sequence | gcPBM binding intensity (ln)
GTTATATAAACATATGCATGTGAAGTGTTTATTAAT [TGCATGCA_site183] | 8.13 ± 0.79
TACCTAATATGTTATACACACATTATGAGTACATAT [CACACA_site2466] | 7.88 ± 0.3
GAATAATATATATGTTCACACATGGTCTTTATTATA [CACACA_site5457] | 8.2 ± 0.56
ATATATTTTCATTTTACACACAAATAAAGATAATTT [CACACA_site2996] | 7.97 ± 0.43
AAAATAAATAAAAAAAGTACATATATAATTTATAAA [XGTACX_site2411] | 7.75 ± 0.39
AAAATACACGCATACACACACACACCGACACATATA [CACACA_site4523] | 8.15 ± 0.51
TGTTGTGATATATTAAAATCGTCCCTTATAATTTTA [GTGCAC_negctrl_site595] | 7.66 ± 0.52
TAATATTATATTTATAGTACATATAATATATATATA [XGTACX_site2964] | 8.79 ± 0.35
GAACACTAATAATGTTGTACACGTAATTATATATTT [XGTACX_site777] | 8.04 ± 0.36
AAACACACACACAAATGTACATATATATATATATTT [XGTACX_site5090] | 7.92 ± 0.51
TTTTCTTAATATTTCGTTTTACATAAACCTTTTAAA [CACACA_negctrl_site660] | 7.91 ± 0.73
AATATAATATTATATAGTACATATTTCTTTTATTTT [XGTACX_site22] | 7.88 ± 0.23
TATATATATATAAGTAGTACAATAATATATTATTTT [XGTACX_site6450] | 9.09 ± 0.042
TTTTACATCATATATAGTACATATATTATACATATA [XGTACX_site8590] | 7.97 ± 0.53
AATAATAATGCTTTAACTTTGTTGTTATTTAGAATA [CACACA_negctrl_site1144] | 7.36 ± 0.59
TATAAATAAAAGTGTACACACATTAAAATCAAACGT [CACACA_site5316] | 8.4 ± 0.39
TCCATGCATTGACACACACACAAAAAAAAATTCTTT [CACACA_site7847] | 8.52 ± 0.3
TTTATTTATTTATGGACACACATACAAATCTTCCAG [CACACA_site4676] | 7.88 ± 0.61
CATACATATATACATACACACACATATAACCAATGT [CACACA_site8679] | 7.99 ± 0.54
TTTGTATTACGTTTGTGTACATATACAATGTGTTTT [XGTACX_site7708] | 7.82 ± 0.4
TATTTTTATTTTTAAACCATATATATATATATATAT [CACACA_negctrl_site1560] | 9.46 ± 0.32
TATAATGATGATGATAGTACGTATGAGTAAGAAAAA [XGTACX_site31] | 8.44 ± 0.62

Sequence | gcPBM binding intensity (ln)
ATAAAAATATTTATTACACACATAAGCAAAAAAAAA [CACACA_site3484] | 8.02 ± 0.81
TATAGTTTCATTCTTTGTACATATATATTATTATTA [XGTACX_site8527] | 7.98 ± 0.45
AATGTGCAAACAAACTGTACTTTTTTTTTTTTTTTT [XGTACX_site928] | 9.46 ± 0.22
AGATTTATTCATTCATGTACTTATTTATTTTATTTT [XGTACX_site6702] | 7.73 ± 0.4
TATGAGAAAAAAAGTACATGCACAAAATGTATATGT [TGCATGCA_site789] | 8.46 ± 0.64
ATTATATAAACCAAATGTACAAAAAGGTCGTAGTGG [XGTACX_site1298] | 8.06 ± 0.59
CAACATTGTTCCTATTGTACATGAACTGTTCATACG [XGTACX_site4070] | 7.65 ± 0.61
ATTATTAAGGTTTATTCAAAAAAGACGTTTTTAAAT [CACACA_negctrl_site1059] | 7.38 ± 0.63
AGACACGTATACGATGCACACGTATGCTTTATATAT [CACACA_site9363] | 8.16 ± 0.61
GACATATATACCAAACGTACATATGTGCAAGCATAA [XGTACX_site3089] | 8.35 ± 0.34
TTGGCTATAGCCAATTGTACTTTTTCTCTTTGGCTT [XGTACX_site1119] | 7.5 ± 0.25
TCTTGATTAACTTAAAAAAAAAAAAAAAAAAAAAAA [CACACA_negctrl_site458] | 8.05 ± 0.83
CATATAATAAATAATTGTACTTGATATAATATTATG [XGTACX_site3562] | 7.49 ± 0.42
TATATTTGTGCGTGTACACATTTGAAAAAATATATA [CACACA_site5079] | 8.49 ± 0.12
GCTTAATACAGAATAACACACAAAATAAATAAATAA [CACACA_site4041] | 7.88 ± 0.61
TTTTTTTTTTTTTTTGCACACTTAAATTTGGTGGCT [CACACA_site5319] | 9.54 ± 0.16
TATATAATTATTTTTTGTACTCATAATAATATGAAA [XGTACX_site289] | 7.83 ± 0.18
AATAATAATAAAAAGGTGCTGAAATATTTTTATTAT [GTGCAC_site9763] | 9.19 ± 0.13
ATAAATTATAATAACTGTACAAAAATAATATATTCA [XGTACX_site1856] | 7.66 ± 0.44
ATATGTACAAAATAAGCACACACAAAAAAAAAAAAA [CACACA_site8984] | 8.42 ± 0.37
TTTTTTTTTTTTTTTTGTACATAAATTTTTATTAGA [XGTACX_site6409] | 8.06 ± 0.59
AAAAAAAAAAAAAATATATATATATATATATATATA [CACACA_negctrl_site540] | 9.755 ± 0.021

Sequence | gcPBM binding intensity (ln)
TTAAAATTATAATACGTACACACCTTATCTTTTTGG [CACACA_site278] | 8.03 ± 0.57
ATATATAACGGGCACACACACATTTACGTATGAATA [CACACA_site1833] | 8.31 ± 0.49
GGCGTATGTGTATATACACACCCACGTATATATATA [CACACA_site9046] | 8.79 ± 0.3
TGTTGTTTTATGTTGTATTGTAATATATTATATTAT [XGTACX_negctrl_site46] | 7.95 ± 0.57
TTAGGATTGAAGAGTTGTACATACCTCTTATTTGTT [XGTACX_site1376] | 7.55 ± 0.52
TATAAAATGTAATCTGAACACACATATTTTTTTAAT [CACACA_site8521] | 7.43 ± 0.43
ATCATATATTATTTATGTACTTATTTATAATAATAT [XGTACX_site8257] | 7.8 ± 0.26
AAATATATTTCTTTTTTTCTTATTATTAATTTGCTT [CACACA_negctrl_site1483] | 7.41 ± 0.67
TATAGATTTATATACACATGCATTTTGGTAAAGAAA [TGCATGCA_site953] | 8.11 ± 0.45
TTTATTTATTATTATGTACACACTATATTAAAACAT [CACACA_site700] | 8.11 ± 0.42
TTATAATAAATATTCATATGTTCAAATATATATATA [CACACA_negctrl_site624] | 8.91 ± 0.28
ATTGTAAGTAGACACACACACATATAGATGTATATA [CACACA_site6463] | 7.68 ± 0.43
TATTTTTTTAATAACTGTACTTTTTTGTCAAATGGA [XGTACX_site4179] | 7.77 ± 0.4
TAAGTTTTGTTCTTTTGTACATATAAGTATAGATCG [XGTACX_site4735] | 7.71 ± 0.28
AATGTTTTTGTGAGATGTATAAATTTTATTTTATTT [XGTACX_negctrl_site413] | 7.61 ± 0.52
AAAAAAATAATGTACACACACATATAGGTTTATATA [CACACA_site192] | 7.95 ± 0.071
AAACGTGTGTATAATAGTACATAATTATAACGTAAT [XGTACX_site421] | 7.72 ± 0.59
AAATTTGGCAAACACACACACACACCCACAGAGACA [CACACA_site4490] | 8.305 ± 0.021
CGTATTTTTGGACATGCATGTACAAATAATCTTATG [TGCATGCA_site973] | 8.06 ± 0.42
TTGGGCATAATGTCATGTACACAAATAATTCTTTAT [XGTACX_site861] | 8.05 ± 0.35
ATATATGGAGCTTATACACACTTTTATATTTTAACA [CACACA_site7757] | 7.86 ± 0.63
TTATTTTTTTTAAATTGTACAAGGAACAGTGAAAAA [XGTACX_site4380] | 8.47 ± 0.36

Sequence | gcPBM binding intensity (ln)
TTTGTGTGTACGCGTGTGCACATTTTTTTTTTTTTT | 9.58 ± 0.11
TAAATGTCTTCAATGAAGTGGAAATGCTGTTATATA [CACACA_negctrl_site1155] | 7.67 ± 0.49
TATATAACCTATAGCACACATATATAATATATATTA [CACACA_site1834] | 8.38 ± 0.33
TTCTATTCAAATGCAAAATTATTAAATAAAAAATAA [GTGCAC_negctrl_site708] | 7.74 ± 0.54
TATAAATTAAAATGTGTGCACTAAATTGAAATAGAA | 11.5 ± 0.53
ATATATATATATAATAGTACATATATTTTTATTGGT [XGTACX_site711] | 9.14 ± 0.23
ATATTTTTTACAAATTGTACATTTTTACAATTATTA [XGTACX_site7496] | 7.74 ± 0.58
TAACCTAAAATAACTACACACACATAAAAAAAAAAA [CACACA_site8807] | 8.14 ± 0.71
TCACTTAATATTTAATGTACATAAGGTTCTTGTGCC [XGTACX_site1822] | 7.79 ± 0.52
TTAAAATATGAATAATGTACAAGAAATTTTATTAAT [XGTACX_site6314] | 7.79 ± 0.42
ATTATTACATTTTTATGTACATATCAAATTTATACA [XGTACX_site7332] | 7.92 ± 0.35
TTAACTTAAGGAGAGTGTACAAATAATAAAATATCT [XGTACX_site4118] | 7.93 ± 0.74
AAAAAAAATTTATGGGGTACATATTATAATATTATA [XGTACX_site3395] | 8.02 ± 0.54
TTATATAACATTATTTGTACATATAAAATATGGATG [XGTACX_site8526] | 7.6 ± 0.4
ATGTATGAATTACATAGTACATAAGAAAAAATGAAG [XGTACX_site5942] | 8.16 ± 0.47
GTTTTCATCCAAAAAAGTACATTTATTTTTATACGA [XGTACX_site1039] | 8.03 ± 0.4
GTAGTGGTTGAATATACACACATATATAAATAAATA [CACACA_site7282] | 7.87 ± 0.47
AAATATAAAGTGCACACACACAAAAAAAGAAAAAAA [CACACA_site6452] | 10.2 ± 0.36
GGAAAATCTTTATAATGTACATTATGATTATATAAT [XGTACX_site6256] | 7.68 ± 0.49
ATTCATAATTTATTATGTACATATATATAATATATT [XGTACX_site1711] | 7.64 ± 0.28
AAATAACAAATTTTTAAAATGTATATATATATATAT [TGCATGCA_negctrl_site219] | 9.32 ± 0.18
ATATCATGTTAAGATTGTACATATATATAATATATA [XGTACX_site7626] | 7.64 ± 0.31
